Measured values taken from publication PMC12136788.
The other results are listed elsewhere or left out.

B1: chr2:90749655:90749656:+_ENSMUSG00000005505_ENSMUST00000090682|mus_mus|FALSE|FALSE (ssRNA)
RNA: GGGAGUUCUACAGUCCGACGAUCCACGUGGCACUUGUCAGUUUCUGUGUCAAAGCACUGGAUCAGUCGGGAAGGUUUGGUAAAGAAGUCUAGAUCAUUCUCCUCACCCCCCAGUAAGUAGAUGAUUCCAUUCAGGUUGGCACCCAACAGAGGAUUGAGCAUCA
B2: chr6:44221449:44221450:+_ENSG00000096384_ENST00000371646|hu_hu|FALSE|FALSE (ssRNA)
RNA: GGGAGUUCUACAGUCCGACGAUCAAUGGGGCUUGACACCCUUAGUUUACUGCCUUCAACACAAGGACAGGAGAGGGAAAAAAACACUAGACACCAGCAGGGGGAGCCAGGUGGGACAGGGGCACUCGAGGCUGCAGUGGGAGCCAACAGAGGAUUGAGCAUCA
B3: chr19:8913615:8913616:-_ENSMUSG00000071658_ENSMUST00000096259|mus_hu|mus_mus_mus_hu_False|18_68 (ssRNA)
RNA: GGGAGUUCUACAGUCCGACGAUCAGGGUACCAAAACCUUCUGCCUGAAAUGGGUGCCCCACCCAGUCAGGACUUGGAGCUGAAAGUAUCUGAUGCAGAAGCAGUGACUAUACGAAAGGUCACUAGAGGGGAGGGCCAGGCCAGCAACAGAGGAUUGAGCAUCA
B4: chr4:48850422:48850423:+_ENSG00000109180_ENST00000264312|hu_hu|FALSE|FALSE (ssRNA)
RNA: GGGAGUUCUACAGUCCGACGAUCAGCAAGUAUAAGUUUAGGGAUGGAACCAUAUUUGGGAUGACUUGAAAGUAUUCCUUUACUAAUUAAUCCUUGAGUAAUCAACAUACUUGUUGCAGCCAAAGGCACAGAUCUGAACCAGAACAACAGAGGAUUGAGCAUCA
B5: chr12:45383586:45383587:+_ENSMUSG00000036257_ENSMUST00000043082|mus_mus|FALSE|FALSE (ssRNA)
RNA: GGGAGUUCUACAGUCCGACGAUCAAAUAUAUAUAUCUAGAGUCAAAUUAAUAGACAUAACUUAAAAAUCAUUUAUUUUCUAUGUGACAUUCUCUCAUUCCAUUCCUGAAUGCUUCAUUUAGGAAAUUCCAUAAUUCAUGGUCUCAACAGAGGAUUGAGCAUCA
B6: chr9:91931296:91931297:+_ENSG00000123975_ENST00000314355|hu_hu|hu_hu_hu_mus_True|48_98 (ssRNA)
RNA: GGGAGUUCUACAGUCCGACGAUCAGAUUAGAUGAUCCCAGAUAAACUUCAUUUUUGUUGUUCUUUUGGAAGAGGUCGUCUAAAGAGAAGAAUAUGUGGUUCUGGCUCAUGAAUCAUGUAAUGAACCCAUCCUAGACUCUGUUGCAACAGAGGAUUGAGCAUCA
B7: chr6:86333760:86333761:-_ENSG00000135316_ENST00000355238|hu_mus|hu_hu_hu_mus_True|18_108 (ssRNA)
RNA: GGGAGUUCUACAGUCCGACGAUCUUCUUCAAGAAUCUGCUCCUUGGUUUUACUCUUAGGAAUCGAGCCCACAAAAAGCCUAUUGUUGGCAACUGAGAUGCAGACACCAAUGUGCUUUCCAGAACGAAUUUCAUGAUUAUUAUACAACAGAGGAUUGAGCAUCA
B8: chr3:176767854:176767855:-_ENSG00000177565_ENST00000430069|hu_mus|FALSE|FALSE (ssRNA)
RNA: GGGAGUUCUACAGUCCGACGAUCGACAUCCUUGUUACUGGGCACGUCCUGCCCUCCUUCCCGUAUGCAGUGUCUAAGCACGAGCUGCGUAGGGCCACUCGUGCUGUUCUCACUGAGGUUCCAGAUUCUUGCCGUGGAGUCUCCCAACAGAGGAUUGAGCAUCA
B9: 160131333_160132206_1458_CDS_ENSG00000113810_ENST00000344722|human|control|control (ssRNA)
RNA: GGGAGUUCUACAGUCCGACGAUCUGUAAAUUUUUCUUUAUUCUCCUCAAUAAAUUUUGUAAUUUUAUUCAGUUUCUUUUCUGUAUCUUUUACAUCUUUAUUCUUAGCUUUCAUUUCAUUUGAUAGUAUAUUGCUCUUCUCAUUCAACAGAGGAUUGAGCAUCA
B10: chr5:92386950:92386951:-_ENSMUSG00000029397_ENSMUST00000031345|mus_mus|motif|central (ssRNA)
RNA: GGGAGUUCUACAGUCCGACGAUCCUGCUGGGCAUGUUGGAGUUUUUCACAGUUGAUGCACUGCACUUCCUUGACUUUGAAACGAUCGGGCUGAUGAUCUUCAUUGGUAUCGUGACACAGCCGGCAGGUAUAAAGCUUGUCACACAACAGAGGAUUGAGCAUCA
B11: chr1:58468927:58468928:-_ENSMUSG00000026034_ENSMUST00000148330|mus_mus|mus_mus_mus_hu_False|1_108 (ssRNA)
RNA: GGGAGUUCUACAGUCCGACGAUCAAUCUAUAAUUACGAUGUUCAUUACCUUAGCUAUGUACUUAAUGAACCAAAUUACCCAAACAAAAUAAACAUGGCAAUAUAAAAAUGUUAAGAAUUUACAAAGCUGUACAAAAAGACUGACAACAGAGGAUUGAGCAUCA
B12: chr19:60013232:60013233:-_ENSMUSG00000040022_ENSMUST00000171986|mus_mus|FALSE|FALSE (ssRNA)
RNA: GGGAGUUCUACAGUCCGACGAUCCUUAUCUUUUAAUUUUGCAAAAGGUGAUCUCGUCUUGUCCUUCAUUGACAAGUCAAACAUGCUUGCUGUCAUGUUGUUCCUCAUAAAUUGAAUAUUGACCUUUAUCUCACCCCUGUUUUUCAACAGAGGAUUGAGCAUCA
B13: chr6:41757443:41757444:+_ENSG00000214736_ENST00000398881|hu_mus|hu_hu_hu_mus_False|38_58 (ssRNA)
RNA: GGGAGUUCUACAGUCCGACGAUCGAACCGUGCAGAGGCAACAUCUCAGCCGACACUGGGGGAUGGGGGGGCAGUGGGAAACUAGGCAGGCAAGGAGAAGAAAAGUGCUUCAGCUGCCACUCAGGUAGGAUCUUGUGGUCACAGCAACAGAGGAUUGAGCAUCA
B14: chr12:42180722:42180723:-_ENSMUSG00000036295_ENSMUST00000043884|mus_hu|mus_mus_mus_hu_True|38_38 (ssRNA)
RNA: GGGAGUUCUACAGUCCGACGAUCCUGUAGGAGAAGAAUCUGUGUGUUAGCUGGCAAUCUGGCUGGGAAAGUUAAAAGACCUAAAUCAUUACAAUCCACUGUCGAUGCUUCCAUAUAAAUGGAUCUGGGUGUAAACCAAGGCCUCAACAGAGGAUUGAGCAUCA

molecular target: T1, UNK ZnF1-3 (human, UniProt Q9C0B0 31-174); test: nsRBNS (natural sequence RNA bind-n-seq); RBNS binding buffer (assumed for nsRBNS): 25 mM Tris pH 7.5, 150 mM KCl, 3 mM MgCl2, 0.01% Triton X-100, 500 ug/ml BSA, 20 U/ml SUPERase-In, 4 C; UNK is unkempt and MSI1 is Musashi-1; names of the RNAs are library labels; protein concentration not given here; high values mean tight binding
T1 sequence: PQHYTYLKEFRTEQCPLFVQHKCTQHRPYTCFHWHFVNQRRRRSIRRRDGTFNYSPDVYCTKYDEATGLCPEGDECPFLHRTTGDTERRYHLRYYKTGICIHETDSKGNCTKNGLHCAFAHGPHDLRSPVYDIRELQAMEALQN

Row | Binder | binding signal [enrichment R]
1 | B1 | 1.02
2 | B2 | 1.99
3 | B3 | 0.908
4 | B4 | 1.91
5 | B5 | 0.667
6 | B6 | 1.03
7 | B7 | 1.55
8 | B8 | 0.402
9 | B9 | 0.34
10 | B10 | 0.681
11 | B11 | 0.937
12 | B12 | 0.57
13 | B13 | 1.79
14 | B14 | 1.36
